Whole data set: some 33,000 sequences, median “E-score (-0.5 to 0.5)” near -0.011, cut for the highest 2% near 0.28. Some of the results follow.
target: T1, Gcr1 (UniProt P07261); experiment: PBM E-score (8-mer binding enrichment) (E-score (-0.5 to 0.5)); higher = stronger / more preferred TF binding; most listed sequences are background and not binding sites; conditions: protein concentration: 100 nM; construct: GST-full length
T1 sequence: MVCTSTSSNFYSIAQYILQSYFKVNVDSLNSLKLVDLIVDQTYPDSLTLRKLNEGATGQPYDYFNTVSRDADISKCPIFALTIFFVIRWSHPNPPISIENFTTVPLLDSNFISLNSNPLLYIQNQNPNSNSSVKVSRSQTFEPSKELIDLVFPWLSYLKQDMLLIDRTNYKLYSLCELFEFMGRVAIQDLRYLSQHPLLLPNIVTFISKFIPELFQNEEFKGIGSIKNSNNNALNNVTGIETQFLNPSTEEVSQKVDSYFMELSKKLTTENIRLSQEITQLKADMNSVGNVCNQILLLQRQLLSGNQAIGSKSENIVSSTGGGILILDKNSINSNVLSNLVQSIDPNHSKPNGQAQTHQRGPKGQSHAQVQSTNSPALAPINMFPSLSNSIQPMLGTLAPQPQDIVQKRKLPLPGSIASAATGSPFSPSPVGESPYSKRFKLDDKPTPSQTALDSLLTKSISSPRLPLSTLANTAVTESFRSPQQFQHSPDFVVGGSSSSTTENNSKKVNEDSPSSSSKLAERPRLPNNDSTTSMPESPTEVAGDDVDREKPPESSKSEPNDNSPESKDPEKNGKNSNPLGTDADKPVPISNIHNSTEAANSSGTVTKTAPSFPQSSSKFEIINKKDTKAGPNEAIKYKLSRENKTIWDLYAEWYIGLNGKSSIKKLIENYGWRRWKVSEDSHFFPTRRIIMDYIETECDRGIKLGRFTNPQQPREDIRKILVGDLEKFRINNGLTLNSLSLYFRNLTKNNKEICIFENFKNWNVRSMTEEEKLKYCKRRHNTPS
Summary of the method: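 Bound GST-tagged yeast transcription factors, applied at about 100-200 nM to double-stranded universal all-10-mer Agilent arrays, were detected with fluorescent anti-GST. Scans were normalised with masliner. A modified Wilcoxon-Mann-Whitney statistic, the E-score, was assigned to each ungapped eight-base word pooled with its reverse complement by the Universal PBM Analysis Suite.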

Sequence	PBM E-score
AAAAGTGA	0.0915
ATGGTGGC	0.0364
GTGATTCA	0.0211
GGTAGTTA	0.103
ACGCTGGG	-0.122
CGGCGGGC	0.0159
ATGGACGG	0.101
ACTGGGAT	0.0877
CGGCAGGC	-0.251
AGGCAAGG	-0.236
ACATATAC	-0.0232
CGATGGAG	-0.213
CGTAATTA	-0.121
CGTACGAC	-0.279
CAGATCAC	-0.045
GGAGTCGA	0.035
ACTACGTG	-0.0591
AAACCTTA	-0.107
AAACTATA	0.064
CATCAAAG	-0.0852
GGCTGCGA	0.192
AGCTAAAG	-0.226
CAGTCCGC	-0.0832
CACCGTGG	-0.0428
CAAATACC	0.0468

Sequence	PBM E-score
CCGCTGCC	0.0824
ACGACGCC	0.217
ATGCGAGA	0.113
CGCTTGCA	-0.00059
CGCCGCAG	0.103
CTCCCCTA	0.0438
ATTTTACA	-0.0742
ACGCCAGC	-0.202
TAGCCTCA	-0.053
GGCGACTA	0.147
CTCAATCC	-0.0319
AAAGAATA	-0.0583
GTCCTCTA	0.2
AGACTTCA	0.0151
AATAAGAA	0.328
TCCCGACA	-0.12
CTTCGTGC	-0.148
AGGGCGTC	0.26
CAACGGAC	-0.00395
ATGGGCCC	0.0692
CACTGAAG	0.117
CGGGCCTC	-0.0105
CGAGTTAA	0.023
CAAGGTCG	-0.152
AAGAGTCT	0.0305

Sequence	PBM E-score
GCTGTCTA	-0.286
CGATTCAG	-0.0595
CCATTAGC	-0.0372
AATTGGTA	0.231
TCCTAACA	0.126
AGTCGATC	-0.193
AGCAGGCA	-0.128
TACCACAA	0.187
CTTCAGCC	-0.204
ACGTAGCG	-0.13
ACGACAAA	0.254
AAAACACC	-0.00688
ACTATCAT	-0.0404
ATGGAGTG	-0.0908
AAGTGAAG	0.0686
AAACGGCT	-0.107
CTTTTCCA	-0.0955
ACTCCGCT	-0.0772
AGTACTCG	-0.00247
CGCCAGGC	-0.218
ATCCCCCC	-0.166
CGTATATC	0.145
ACCGCAAC	0.0759
CGTGCCTA	-0.121
CTCAGGCC	-0.121

Sequence	PBM E-score
TCAATCAA	0.0107
AGGTTAGA	0.0712
AGTTCACA	0.0192
AGAAGGAT	-0.242
CCTTGAAG	-0.121
ACCCCATA	0.0773
GACACGAA	0.082
GGGTCGTA	-0.123
CATGGGTC	-0.0305
GAATCAAC	0.11
AGCTCTAG	-0.126
TACGTGCA	-0.116
CACATCAA	0.0698
GACTCCCA	0.197
GCGTTATA	-0.16
GCCATTAA	0.12
GCATGCAC	-0.24
CCGAATCA	-0.0631
TAGGGGAA	0.274
ACAGTCCC	-0.302
AGCACATA	-0.12
ATGATGTA	0.0362
GTTGTCGA	0.147
GATGCACA	-0.0673
ATTTCCCC	0.09

Sequence	PBM E-score
ACTCGGGC	-0.143
CTAACCGC	-0.0901
CCGGAGAG	-0.0489
CTATAGAA	0.0208
GATGATCC	-0.0894
AGGTGGTG	0.0323
ACGGACCG	-0.0393
GAACTTGA	0.233
AAAAGAAG	0.309
GGTATTTA	0.0653
ATGCTTTC	0.0529
TAGTCGGA	0.178
CTTACGTA	-0.154
AACGAAAA	-0.126
AACGAGAA	0.0348
ATCGTAGA	0.00018
TTATCGAA	0.133
CTAACTCC	-0.0198
AACTTTCC	-0.105
TACCTACA	0.122
ACCCGAGT	0.005
ATAAGAAA	0.171
ACTAACCG	-0.0516
GATTAACA	-0.0694
ACAAAGCG	0.224

Sequence	PBM E-score
GCTAGCGA	-0.0519
ACGGAGAC	-0.0545
AAGTTATA	0.261
GGCGTATA	0.195
ACCGAACC	-0.0945
ATGCTAGA	0.201
TCGCGCCA	-0.185
ATTACTAC	-0.191
AGACCTGG	-0.216
TCATTAGA	0.102
AGTTTCGA	-0.151
CCATTGGC	0.0633
ATTAGCAG	0.177
CGTAGGAA	0.0528
ACAGCCGT	-0.317
CATCCTGG	0.213
TCTAGTAA	0.0813
ATTACCGG	0.173
ATGGATGG	-0.034
CGGCTCGA	-0.121
AACCCCCG	-0.0829
CTGGAAGA	0.0722
ATTTTTCC	-0.0348
AACTGCGA	0.0401
AACCCCAG	0.0204

Sequence	PBM E-score
AGAAAGAA	-0.123
GCTGCTGA	0.199
AGGTGCGA	-0.0572
CAAGCTGG	-0.0711
AAACCGGG	-0.0099
CCAACGCC	-0.205
ATTGCAAC	0.0417
TCATTCGA	-0.0779
TAGATAGA	-0.135
GCGCGTAA	0.197
ATTTAGAC	0.139
CTTTTTGC	0.0974
AGATGTAG	-0.109
TACTGATA	0.273
AGTCACAC	-0.15
AGGGATAG	-0.184
AGATCGGC	-0.098
CTAGTTCA	0.132
CTGACCGA	-0.343
GCTCTCCA	-0.191
AACTTTCA	0.0331
AAAGGCCT	-0.292
GCAGCGTA	0.186
AAAGAACC	0.167
AGGACACG	-0.195

Sequence	PBM E-score
AATTATCA	0.149
CGATTCAC	0.131
AAGAAGCG	0.0955
AGTCTTGA	-0.162
AACTGGAC	0.198
ACTGGGGA	0.0252
ATACGCAA	0.186
CCGGGCTC	0.12
ACGCCAAG	0.0396
AATAAGCA	-0.0342
GAACGAGC	-0.155
AGGGTCGC	-0.074
GACTGCGA	-0.173
AACCTCCA	-0.163
GATGGTGA	-0.161
CCCACCAC	0.0761
GCGGGAAC	0.00746
ATGCCTAA	0.0538
GAGTGACA	-0.0369
GAGGACTA	-0.125
ACCGCCTG	-0.0849
ATCTACCA	-0.103
CGCTGGAG	0.202
CACGAACG	-0.0533
CTAACGTC	-0.0629

Sequence	PBM E-score
CACGATTA	-0.0818
ATCCTTCG	-0.0408
GGTGGGTA	-0.0975
CGCGACCA	0.00425
AAAACTGA	-0.00516
GATGGCAC	-0.0293
AGTCTGAC	-0.0237
GAGTCCAC	0.257
CTAACGCA	-0.0647
CCGCAAGG	-0.134
ATTGCGGA	0.046
TCAGCGAA	-0.129
CAGCTTCA	0.0949
ATTCTCCG	-0.196
AAACACGA	0.158
AGATTATA	0.0894
CACACGAG	-0.111
ATTTTGTA	0.0397
CGTAGCGA	-0.0909
ACTCGAAT	0.0813
TTATCAAA	0.114
GCGCTACC	0.0508
AAGAAGCA	0.165
AAATGGAA	0.239
ATTTAATA	0.242

Sequence	PBM E-score
AAGACGCT	0.218
TATGAACA	0.0957
GCGAGGCA	-0.15
CAGGGCTC	-0.0457
CACAAAAG	0.0558
AGTAATAT	0.224
CTCAGACC	-0.0702
GTGAGGTA	-0.282
CAGCCACC	0.123
CGAGAAAA	0.0592
CTAATCGC	-0.0339
GACAATAC	-0.0695
CTGCAATC	-0.023
ATCCGTAG	0.068
TAAGATGA	-0.0509
CTACAGTA	-0.0972
CCTCGACA	-0.139
CTGTCAGA	-0.0471
AGCGTTAC	-0.183
GGAAATAC	0.17
ATGGAGAA	0.0558
AGAACGGA	0.0749
AGTCCGAC	-0.091
CACCGTAA	0.00054
ATATAGAC	0.0385

Sequence	PBM E-score
ACGCAACG	-0.0668
CCCCAGAC	0.0344
CATCTCTC	-0.127
TCACTGAA	0.075
AAAACTCG	0.019
ATTAGAGG	0.134
ATTCTTAC	0.0639
CCCAGGTC	-0.0783
CCTGCGCC	-0.0142
ACTCAAAA	0.0458
CACCTCGA	-0.0309
AGTCGTTC	-0.0254
AGATGGAT	-0.0745
CGACGTCC	0.0613
AGGTGTTA	-0.188
AGACATCA	-0.103
ACTGTCAC	-0.178
CAGGGTTA	-0.061
AACATTGG	-0.02
ATAGCTAC	-0.0591
CCCGTTAA	-0.034
ACAATAAA	-0.118
ACGACGCT	0.263
GCTCGAGA	-0.166
GCCGTTGA	-0.158

Sequence	PBM E-score
GTTGTACA	0.0242
GGCCATGA	-0.124
GCTTATGA	-0.198
AGGCATTA	0.0626
CATCGACG	-0.0993
GGCTGTAA	-0.12
GTAGTGAC	0.0161
CGCATCCA	0.323
AAGGGTCG	-0.105
GAGAACGA	-0.0986
AGATCTCA	-0.223
GCTCGATA	-0.0861
CGGGGTCC	-0.0385
TCTGAAGA	-0.0693
ACGCCACC	0.0273
ATAATTTG	0.0276
AAACAACA	-0.0653
CGATTATC	-0.0247
AAGTTGTA	0.181
CCACATCG	0.0843
CGGGGATA	-0.0309
TCTCTGCA	-0.0968
CCAACCAA	0.0612
ACACGGCC	-0.00061
TCGTAAAA	0.231

Sequence	PBM E-score
CCTACGAC	-0.195
CGCTGAGC	0.0119
CTATGGCA	-0.0709
TCATGCCA	-0.148
ACTAGCCG	-0.0477
CCTCTGCA	-0.0717
CAGCCCTC	-0.0883
AGGCGGTG	-0.254
TCTTTTAA	0.131
CCGTTGAG	-0.198
ATGGCACA	-0.0956
CTCTCCAA	-0.0761
GACCGAAA	-0.204
GGTTTTTA	-0.0336
AGTTGGGC	0.0733
ACTAACTA	-0.256
ATGGGCTA	-0.0311
CCGGAGGA	-0.0617
AAGTCTCG	-0.336
CAAAAGTA	0.0094
CCGCGGGA	0.117
ACCGTAAG	-0.0765
AGAACCCA	0.234
ACACCAGT	-0.145
ACACAAAC	0.0411

Sequence	PBM E-score
CCCGATGC	-0.124
GCCCTGGA	-0.0767
GCACTGAC	-0.0549
CCACGAGA	0.0271
AGTCCTCC	-0.206
CCCAGACA	-0.0251
CATAGGAA	0.134
GGCTATGA	-0.188
TATTTGGA	0.313
GAGGACCA	-0.085
GTGTGTTA	-0.0104
ATCCGTGC	0.0699
AATCTAAT	0.0917
CGGCGGAA	0.148
ATGGACCA	0.0665
CGCGCAAC	0.00246
ACTATCCA	-0.0109
ATAGGACA	-0.127
CCACGTTA	-0.0265

From the supplement of paper PMC3334620
